# Reference: the BET-seq Pho4 binding data (Le et al. 2018)
# The list shows a part of the results. The energies were worked out here from pooled read counts, against the library average; single values are noisy.
# Target: T1, Pho4 (S. cerevisiae) (UniProt P07270)
# T1 sequence: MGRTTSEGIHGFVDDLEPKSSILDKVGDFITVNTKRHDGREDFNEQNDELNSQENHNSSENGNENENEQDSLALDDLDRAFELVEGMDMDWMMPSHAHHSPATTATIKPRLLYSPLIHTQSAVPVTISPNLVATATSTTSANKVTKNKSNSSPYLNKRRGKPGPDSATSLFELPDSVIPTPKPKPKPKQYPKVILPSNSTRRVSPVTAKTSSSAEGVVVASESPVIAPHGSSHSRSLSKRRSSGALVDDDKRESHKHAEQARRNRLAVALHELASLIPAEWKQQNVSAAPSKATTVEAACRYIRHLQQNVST
# Test: relative binding free energy (BET-seq); higher = weaker binding
# Conditions: reference: library average
row,Sequence,relative binding free energy
1,TCTGCCACGTGGTTTA,-0.04 kcal/mol
2,TTCGGCACGTGTAGTG,0.09 kcal/mol
3,TGCTACACGTGTTTAT,0.12 kcal/mol
4,CTGGGCACGTGTATGA,-0.06 kcal/mol
5,TTTACCACGTGATAGG,0.15 kcal/mol
6,GATTGCACGTGTTAAT,0.1 kcal/mol
7,TATGGCACGTGACTGG,0.05 kcal/mol
8,AAGGACACGTGGGATG,-0.1 kcal/mol
9,GGGCTCACGTGTGCGG,0.32 kcal/mol
10,GAGGTCACGTGTGTAC,0.23 kcal/mol
11,TATCTCACGTGGTAGT,0.2 kcal/mol
12,CGGGACACGTGATATG,0.17 kcal/mol
13,AATATCACGTGGAGGA,0.19 kcal/mol
14,GTACCCACGTGTTGGG,-0.03 kcal/mol
15,GATAACACGTGGTGTT,-0.04 kcal/mol
16,CATGTCACGTGGTGGG,0.03 kcal/mol
17,TAGTTCACGTGATGTA,0.17 kcal/mol
18,GATTTCACGTGAATGT,0.27 kcal/mol
19,TTTGGCACGTGTATAG,-0.03 kcal/mol
20,GAGGGCACGTGAGATG,0.23 kcal/mol
21,TAGGGCACGTGGCTGC,-0.16 kcal/mol
22,GGTCGCACGTGTAAGG,0.01 kcal/mol
23,GTAGACACGTGGGAAG,-0.07 kcal/mol
24,TTCTTCACGTGTGTGT,0.28 kcal/mol
25,GCAGTCACGTGTTAGG,0.03 kcal/mol

row,Sequence,relative binding free energy
1,AGATACACGTGAGGTT,0.42 kcal/mol
2,TGGTACACGTGCGTTT,-0.01 kcal/mol
3,TATTACACGTGTTCAT,-0.05 kcal/mol
4,TATCACACGTGTGGAG,0.22 kcal/mol
5,GTGTTCACGTGTTAGC,0.2 kcal/mol
6,TGGCGCACGTGAGGCG,0.12 kcal/mol
7,GGGCCCACGTGGGCGT,-0.25 kcal/mol
8,GGCAACACGTGTTGGT,0.02 kcal/mol
9,GGTATCACGTGAGGGC,0.28 kcal/mol
10,GGAAGCACGTGAGTGG,0.21 kcal/mol
11,TGATTCACGTGTTGCG,0.19 kcal/mol
12,TTGGCCACGTGTATTT,-0.02 kcal/mol
13,TTCAGCACGTGGCTGT,-0.07 kcal/mol
14,CGGTTCACGTGGTGAA,-0.02 kcal/mol
15,GTTCACACGTGGTGTT,0.07 kcal/mol
16,GTCGTCACGTGGTGGT,0.15 kcal/mol
17,TGTTTCACGTGCTTGG,0.24 kcal/mol
18,TCAGCCACGTGTGTGG,0 kcal/mol
19,GGATCCACGTGGATGG,0.03 kcal/mol
20,AGGGGCACGTGCGGGC,-0.17 kcal/mol
21,TAAGTCACGTGTGGCG,0.02 kcal/mol
22,CGAGTCACGTGGCTGT,0.01 kcal/mol
23,TAGGCCACGTGGTTGG,-0.1 kcal/mol
24,TTGTACACGTGGCGCG,-0.08 kcal/mol
25,TTATTCACGTGCTGTG,0.26 kcal/mol

row,Sequence,relative binding free energy
1,AACTGCACGTGTGAGG,0.15 kcal/mol
2,AGAGTCACGTGCTTTT,0.04 kcal/mol
3,GTGCGCACGTGTGTCT,-0.07 kcal/mol
4,AGTTTCACGTGTACGG,0.31 kcal/mol
5,ATAGCCACGTGTTATT,0 kcal/mol
6,AGGAGCACGTGGGCTT,-0.22 kcal/mol
7,GAGTTCACGTGGGGTA,0.12 kcal/mol
8,TATAGCACGTGCTTTT,-0.06 kcal/mol
9,ATTGTCACGTGAATAA,0.33 kcal/mol
10,TTAGTCACGTGCATTG,0.08 kcal/mol
11,GTGCGCACGTGCAAGG,-0.02 kcal/mol
12,TATGCCACGTGTGGAT,-0.04 kcal/mol
13,TATTTCACGTGTTAAC,0.26 kcal/mol
14,TGCATCACGTGTGTTA,0.13 kcal/mol
15,TGAATCACGTGTGGGC,0.2 kcal/mol
16,TTTTTCACGTGGGTTT,0.21 kcal/mol
17,AGGCACACGTGGTATG,-0.15 kcal/mol
18,ACGGCCACGTGTGGGA,-0.02 kcal/mol
19,AGGGTCACGTGTATGC,0.12 kcal/mol
20,AGGTACACGTGATGTC,0.33 kcal/mol
21,AGCGGCACGTGGTTTG,-0.24 kcal/mol
22,TATTGCACGTGAGTGT,0.15 kcal/mol
23,TGGGGCACGTGAGTGC,0.05 kcal/mol
24,TGGTTCACGTGCAGGC,0.23 kcal/mol
25,TATAACACGTGGAGGA,-0.02 kcal/mol

row,Sequence,relative binding free energy
1,GGTAACACGTGTGGGG,0.16 kcal/mol
2,TTGGGCACGTGAGGCG,0.09 kcal/mol
3,AGTTGCACGTGCTTTT,0.06 kcal/mol
4,TGAGTCACGTGTAGTC,0.22 kcal/mol
5,TGGTGCACGTGTTGCC,-0.07 kcal/mol
6,CTTTACACGTGCGGTT,0.18 kcal/mol
7,TGGTGCACGTGGAAGG,0.02 kcal/mol
8,ATTTGCACGTGCTGGA,0.02 kcal/mol
9,TCATACACGTGGTGGT,-0.14 kcal/mol
10,ATAGGCACGTGCGTTT,-0.23 kcal/mol
11,GACGGCACGTGTTGTT,0.1 kcal/mol
12,AGGCTCACGTGCGGGT,0.03 kcal/mol
13,TTTTGCACGTGGTGCT,-0.01 kcal/mol
14,TTGGTCACGTGAATGC,0.29 kcal/mol
15,GAGAGCACGTGGGGTC,-0.21 kcal/mol
16,ATGGACACGTGGAGGC,-0.07 kcal/mol
17,TGATACACGTGATGCT,0.12 kcal/mol
18,GAGGTCACGTGAGTCT,0.44 kcal/mol
19,TGAGTCACGTGTATGT,0.14 kcal/mol
20,ATATGCACGTGTGGCT,0.09 kcal/mol
21,TCGTACACGTGTGGTG,0.14 kcal/mol
22,GAATGCACGTGGGTTG,-0.07 kcal/mol
23,AGTATCACGTGATATT,0.18 kcal/mol
24,CAAGTCACGTGTATGT,0.25 kcal/mol
25,GGATGCACGTGTAAGA,0.23 kcal/mol

row,Sequence,relative binding free energy
1,TTTATCACGTGGATTC,0.24 kcal/mol
2,AGTCACACGTGGGAGT,0.05 kcal/mol
3,TTATGCACGTGAGTTG,0.18 kcal/mol
4,AATCTCACGTGCGGGG,0.22 kcal/mol
5,GGGGTCACGTGAGATA,0.3 kcal/mol
6,GGTCTCACGTGGTTGT,0.1 kcal/mol
7,GCTTCCACGTGTGGGA,0.27 kcal/mol
8,GTTGGCACGTGGTAAA,-0.07 kcal/mol
9,GTCTTCACGTGAAAGG,0.38 kcal/mol
10,GTGTTCACGTGGAGGG,0.24 kcal/mol
11,TAAAGCACGTGTATTT,-0.05 kcal/mol
12,ATCGGCACGTGAGGGT,0.11 kcal/mol
13,GATTGCACGTGCGGTC,0.08 kcal/mol
14,CTAATCACGTGGGAGT,0.05 kcal/mol
15,AGGGGCACGTGCGCGG,-0.33 kcal/mol
16,AATGACACGTGCGGGG,0.02 kcal/mol
17,TCGAGCACGTGTAGGG,-0.05 kcal/mol
18,ATTGTCACGTGCCGGG,0.11 kcal/mol
19,GCGGGCACGTGCGTGG,-0.19 kcal/mol
20,AAAGTCACGTGGTTAG,-0.04 kcal/mol
21,ATATACACGTGGGTAT,-0.15 kcal/mol
22,TGGTTCACGTGTTGGG,0.35 kcal/mol
23,AATAACACGTGTATGG,-0.11 kcal/mol
24,GAATACACGTGGAGGG,0.18 kcal/mol
25,GTGTTCACGTGCAAGA,0.32 kcal/mol

row,Sequence,relative binding free energy
1,AGGGCCACGTGGGGCG,-0.31 kcal/mol
2,TGTTTCACGTGCATGC,0.13 kcal/mol
3,TGTTACACGTGAGAGC,0.33 kcal/mol
4,TGGTGCACGTGAACAG,0.36 kcal/mol
5,TTGTCCACGTGCGGTG,-0.02 kcal/mol
6,TGTCGCACGTGTTGGC,-0.23 kcal/mol
7,GGTGTCACGTGTGGGA,0.23 kcal/mol
8,GTTGGCACGTGGAATT,-0.1 kcal/mol
9,TACTGCACGTGTATTG,-0.01 kcal/mol
10,CTGTTCACGTGTCAGT,0.17 kcal/mol
11,AATATCACGTGTTCGG,0.17 kcal/mol
12,TTTTTCACGTGCGCTA,0.23 kcal/mol
13,CTTGGCACGTGGCAGG,-0.24 kcal/mol
14,GTGTTCACGTGGATTA,0.2 kcal/mol
15,TCGTGCACGTGGGGAG,-0.18 kcal/mol
16,GTAGGCACGTGGCACG,-0.04 kcal/mol
17,ATCGGCACGTGAGTCG,0.2 kcal/mol
18,AATAACACGTGTGGGC,0.04 kcal/mol
19,ATGCGCACGTGTAAGG,-0.07 kcal/mol
20,GGGGGCACGTGATGTC,-0.01 kcal/mol
21,TGGACCACGTGGGATT,-0.08 kcal/mol
